Laboratory results taken from PubChem BioAssay AID1347120 (National Center for Advancing Translational Sciences (NCATS), 2019).
The campaign covered roughly 390,000 compounds. About 930 (0.24%) were called active. The inconclusive results got no clear call from the source; some entries with a clear call stand among them for comparison. Calls come from the whole dose curve; as a rule, active = well fitted activation curve with a large enough effect; inconclusive = small, poorly fitted or top-dose-only effect; inactive = no such curve, though single readings can be large or run the other way. Potencies beside an inconclusive call are fits to weak or partial responses and may not hold up.

Experiment: qHTS for Suppressors of FUS Proteinopathy: Primary screen using FUS-linked yeast assay; note: nearly all actives have a fitted effect of over 55% in size;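 for growth rescue (activation): plate controls were DMSO vehicle for no effect and reference control for full effect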
Conditions: S. cerevisiae FUS-expressing, OD600, 24 h; Potency: growth rescue; growth rescue (activation): at 76.6 µM (top of the series)
How it was run: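 Steps: raffinose overnight preculture; dilution to OD 0.005 in 2% galactose minimal medium; compound addition (concentration series); 24hr at 30C, 99% humidity; absorbance read at 600 nm.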
Potency is the fitted concentration of half-maximal effect; tags give direction and shape of the fitted curve.

SMILES	Potency	growth rescue (activation)
CCc1nnc(NC(=O)C2=CCN(S(=O)(=O)c3ccccc3)CC2)s1	inconclusive: 7.08 µM [activator, single point]	
CCN(CC)CCNC(=S)Nc1ccc2nc(N3CCCC3)cc(C)c2c1	inconclusive: 10 µM [activator, partial curve]	
COc1ccc(CCN2CC(C(=O)OCC(=O)N(C)CC(=O)Nc3ccccc3Cl)CC2=O)cc1OC (configuration not stated)	inactive	
Cc1ccc(C(=O)Nc2ccccc2-c2ccccc2)cc1S(=O)(=O)Nc1cccc(C)c1C	inconclusive: 31.6 µM [activator, partial curve, poor fit]	
CCn1cc(C(=O)NCc2ccco2)c(=O)c2cc(F)c(N3CCN(C(=O)c4ccco4)CC3)cc21	inconclusive: 39.8 µM [activator, single point]	
COc1ccc(-c2noc(CSc3nnc(Cc4ccccc4)n3-c3ccccc3)n2)cc1OC	inconclusive: 28.2 µM [activator, partial curve, poor fit]	
CCCCC(=O)NC(c1cccc([N+](=O)[O-])c1)c1ccc2cccnc2c1O (configuration not stated)	inconclusive: 2.82 µM [activator, full curve]	
O=C(NCCc1csc(-c2ccc(F)cc2)n1)c1cccs1	inactive	
Cc1cc(C2=NNC(=NC3CC3)SC2)c(C)n1-c1c(C)n(C)n(-c2ccccc2)c1=O	inconclusive: 35.5 µM [activator, single point]	
CC(C)Oc1ccc2c(=O)c(-c3ccccc3)coc2c1	inactive	
Oc1ccc(C[C@H]2CNC(=S)N2C[C@H]2CCCN2C[C@H](Cc2ccccc2)N2C[C@H](Cc3ccc(O)cc3)N(CCc3ccccc3)C2=S)cc1	inconclusive: 35.5 µM [activator, single point]	
O=C(c1ccc(-c2nnc(Nc3cccc(Cl)c3)c3ccccc23)cc1)N1C[C@H]2C[C@H](C1)c1cccc(=O)n1C2	inconclusive: 11.2 µM [activator, partial curve, poor fit]	
Cc1c(C(=O)N2CCN(S(=O)(=O)c3ccccc3F)CC2)oc2c(Cl)cccc12	inconclusive: 50.1 µM [activator, single point]	
O=C(COc1cccc(NC(=O)c2cccc([N+](=O)[O-])c2)c1)c1ccc(F)cc1	inactive	
COc1ccc(/C=N/n2c(-c3ccc(C)cc3)n[nH]c2=S)cc1OC	inactive	
COc1cc(OC)c(NC(=O)C(NS(=O)(=O)c2cccc3nsnc23)c2ccccc2)cc1Cl (configuration not stated)	active: 22.4 µM	
Cc1cccc(-n2nc(C)cc2N)c1		inconclusive: 90.9% [activator]
COc1cc(-c2nnc(SCC(=O)N(Cc3ccccc3)C(C)(C)C)o2)cc(OC)c1OC	inconclusive: 35.5 µM [activator, single point]	
CN(C(=O)Cn1cc(S(=O)(=O)N2CCN(c3ccccc3F)CC2)c2ccccc2c1=O)c1ccc(Cl)cc1	inactive	
Cc1ccc(C2(c3noc(CN(C)CC4COCCO4)n3)CCCC2)cc1 (configuration not stated)	inconclusive: 50.1 µM [activator, single point]	
O=C(C(=O)N1CCN(C(=O)c2ccco2)CC1)c1ccccc1	inactive	
COc1ccc2c(c1)c1ncn(CCCN3CCOCC3)c(=O)c1n2C		inconclusive: 49.8% [activator]
COC(=O)c1cccc(CC2(C)C(=O)Nc3ccc(OC(F)(F)F)cc32)c1 (configuration not stated)	inconclusive: 50.1 µM [activator, single point]	

SMILES	Potency	growth rescue (activation)
C=CCn1c(SCC(=O)NCc2ccc3c(c2)OCO3)nnc1C1COc2ccccc2O1 (configuration not stated)	inconclusive: 28.2 µM [activator, single point]	
Cc1nn(C)c(C)c1S(=O)(=O)N1CCC(C(=O)Nc2ccc3c(c2)OCCO3)CC1	inactive	
Cc1ccccc1S(=O)(=O)N1C[C@H]2CON(C)[C@H]2C[C@H]1c1cccc(-c2ccccc2)c1	inconclusive: 50.1 µM [activator, single point]	
Cc1ccc(CNC(=O)Nc2cn(CC(C)C)c(=O)c3ccccc23)cc1	inactive	
Cc1nc(N2CCCC2)ncc1C(=O)N1CCN(c2ccc(Cl)cc2)CC1	inactive	
O=C(Nc1nc(-c2cccs2)c(C(=O)C(F)(F)F)s1)c1ccco1	inactive	
Cc1ccccc1NC(=O)OC1CC2CC1[C@H]1CCCCN1[C@H]2Cc1ccccc1 (some centres not stated)	inactive	
COc1ccc(CNC(=O)c2ccc(CSc3nc4ccncc4n3Cc3ccccc3F)cc2)cc1	inactive	
CC(C)(C)C(=O)NCCN1C(=O)S/C(=C\c2ccc([N+](=O)[O-])cc2)C1=O	inconclusive: 50.1 µM [activator, single point]	
COc1ccc(NC(=O)C(C)n2nc(-c3cc(C)ccc3C)c3c(c2=O)CCCC3)cc1 (configuration not stated)	inactive	
CCOc1cc(C)c(S(=O)(=O)NC2CCCCC2)cc1C	inconclusive: 35.5 µM [activator, single point]	
COCCN(C(=O)C1CCCO1)c1c(N)n(CC(C)C)c(=O)[nH]c1=O (configuration not stated)	inactive	
Cn1c(Cc2cccs2)nnc1SCC(=O)Nc1ccc2cn[nH]c2c1	inactive	
COc1ccccc1N1CCN(CC(=O)NCC2CCCO2)CC1 (configuration not stated)	inactive	
COCCn1c(C)cc(C2=NNC(=Nc3ccc(OC)cc3)SC2)c1C	inconclusive: 7.94 µM [activator, full curve]	
CC(=O)NCCC(=O)Nc1nc(-c2c[nH]c3ccccc23)cs1	inconclusive: 39.8 µM [activator, partial curve, poor fit]	
O=C(O)CCc1nnc2cnc3ccccc3n12	inactive	
C=CCn1c(=O)c2ccccc2n2c(Sc3nnnn3-c3ccccc3)nnc12	inactive	
O=C(c1ccccc1Cl)N1CCCC(c2nc3c(nnn3Cc3ccccc3)c(=O)[nH]2)C1 (configuration not stated)		inconclusive: 79.7% [activator]
Cc1ccc2cc(C(c3nnnn3C3CCCC3)N3CCN(c4ccc(F)cc4)CC3)c(=O)[nH]c2c1 (configuration not stated)	inconclusive: 31.6 µM [activator, single point]	
COc1ccc(C)c(NC(=O)C2CC(=O)NC3=C2C(=O)CCC3)c1 (configuration not stated)	inactive	
COc1ccc(NC(=O)CC2C(=O)N(c3ccc(F)cc3)C(=O)N2CCc2sccc2C)cc1 (configuration not stated)	inconclusive: 25.1 µM [activator, single point]	
CCCc1cc(=O)[nH]c(SCC(=O)N2CCN(S(=O)(=O)c3ccc(Cl)cc3)CC2)n1	inconclusive: 11.2 µM [activator, single point]	

SMILES	Potency	growth rescue (activation)
C[C@]12c3[nH]c4cc(-c5ccco5)ccc4c3CCN1C(=O)[C@@H](CC(=O)NCc1ccco1)C[C@@H]2C(=O)N1CCCCC1	inconclusive: 44.7 µM [activator, single point]	
O=C(Cn1c(=O)oc2cc(S(=O)(=O)NCc3ccccc3)ccc21)NCc1ccccc1Cl	inactive	
CCNC(=O)CSc1nc2cc([N+](=O)[O-])ccc2n1-c1cccc(C(F)(F)F)c1	inactive	
Cc1ccc(C)c(S(=O)(=O)Nc2ccccc2C(=O)Nc2ccc(S(=O)(=O)Nc3ncccn3)cc2)c1	inconclusive: 17.8 µM [activator, partial curve]	
COC(=O)C1C(=O)C2=C(CC1C)NC(C)=C(C(=O)OCc1ccc(OC)cc1)C2c1ccc(C)o1 (configuration not stated)	inconclusive: 50.1 µM [activator, single point]	
CCn1ccc2cc(S(=O)(=O)N3CCC(C(=O)NCCc4ccccc4)CC3)ccc21	inconclusive: 31.6 µM [activator, partial curve, poor fit]	
O=C(NCc1ccccc1Cl)c1ccc(Cn2c(=O)c3cccn3c3cccnc32)cc1	inactive	
COCCNC(=O)c1cccc(Nc2nc(-c3ccccc3)c3cc(Cl)ccc3n2)c1	inconclusive: 31.6 µM [activator, single point]	
CCC(CC)c1nnc(NC(=O)c2c(-c3ccccc3)noc2C)s1	inconclusive: 17.8 µM [activator, partial curve]	
Cc1ccccc1OCC(=O)OCC(=O)Nc1cc(C(F)(F)F)ccc1N1CCOCC1	inconclusive: 50.1 µM [activator, single point]	
Cc1nc2scc(-c3ccc(Cl)cc3)c2c(=O)n1N	inactive	
Cc1noc(C)c1CSc1ccccc1C(=O)N1CCN(c2ccccc2)CC1	inconclusive: 50.1 µM [activator, single point]	
Cc1cccc(-c2nnc(SCc3cccc4ccccc34)n2-c2ccc(Cl)cc2)c1	inconclusive: 14.1 µM [activator, partial curve, poor fit]	
Cc1ccc(C(=O)NC2CCCC(C)C2C)cc1S(=O)(=O)N1CCCCC1 (configuration not stated)	inconclusive: 44.7 µM [activator, single point]	
COc1ccc(C(=O)NC2CC(C)(C)Cc3c2cnn3-c2ccccc2)c(OC)c1 (configuration not stated)	inconclusive: 28.2 µM [activator, partial curve, poor fit]	
Cc1cc(C(=O)COC(=O)c2n[nH]c3ccccc23)c(C)n1C	inconclusive: 50.1 µM [activator, single point]	
COC(=O)c1ccc(CC(=O)c2ccc(O)cc2O)o1	inactive	
CCOc1cc(-c2c(C#N)c(N)nc3c2CCc2ccccc2-3)ccc1O	inactive	
O=C(c1ccccc1)N1CCCC(c2nc3c(nnn3Cc3ccccc3)c(=O)[nH]2)C1 (configuration not stated)		inconclusive: 59.1% [activator]
Cc1cccc(C)c1-n1nnnc1C1(C)CCC(=O)N1Cc1cccc(C(F)(F)F)c1 (configuration not stated)	inconclusive: 15.8 µM [activator, partial curve]	
CCOC(=O)CCCCCC(=O)Nc1ccc2c(c1)C(=O)N([C@@H](C)CO)C[C@H](C)[C@H](CN(C)C(=O)NC(C)C)OCCCC[C@H](C)O2	inconclusive: 8.91 µM [activator, full curve]	
